{"source": "PubChem BioAssay AID1345082", "about": "(National Center for Advancing Translational Sciences (NCATS), 2018)", "note": "Several values for one entry are separate records, joined by “and”; a condition that tells them apart may be missing. Identical values can stand only once. Screen size: about 94,000 compounds; about 4,000 (4.3%) were called active. Inconclusive means that the source gave no clear call. Such entries were picked first, then a sample of the others. Calls come from the whole dose curve; as a rule, active = well fitted inhibition curve with a large enough effect; inconclusive = small, poorly fitted or top-dose-only effect; inactive = no such curve, though single readings can be large or run the other way. Potencies beside an inconclusive call are fits to weak or partial responses and may not hold up. Potency is the fitted concentration of half-maximal effect; tags give direction and shape of the fitted curve.", "data": [{"assay": "Cytotoxic Profiling in NIH 3T3 Cell Line of Diverse Libraries Using Quantitative High-Throughput Screening; note: nearly all actives have a fitted effect of over 55% in size", "conditions": "NIH 3T3 viability, CellTiter-Glo ATP luminescence, 48-72 h; series mostly up to 96.7 µM", "method_in_brief": "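First NIH 3T3 cells are plated at 400 cells/well; next compound is pinned in; then plates incubate 48 or 72 hr at 37 °C; finally CellTiter-Glo is added and luminescence read after 10 min.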", "values": [{"smiles": "COc1cccc(CN2CCCOCCNC(=O)[C@@H]3CCCC[C@@H]32)c1OC", "Potency": "inactive"}, {"smiles": "Cc1ccsc1C(=O)N1CCC(N2C(=O)C(OCC3CC3)C23CCCCC3)CC1", "note": "(configuration not stated)", "Potency": "inactive"}, {"smiles": "Cc1ccc2c(c1)N1C(=O)OC[C@@H]1CCN(C(=O)CN(C)C)C2", "Potency": "inactive"}, {"smiles": "O=C1CCN(S(=O)(=O)c2ccccc2)CCCN(C(=O)NC2CCCCC2)CCN1", "Potency": "inconclusive: 70.8 µM [inhibitor, single point]"}, {"smiles": "Cc1cnc(CC2CCN(S(=O)(=O)c3ccccc3)C2)n1C(C)C", "note": "(configuration not stated)", "Potency": "inactive"}, {"smiles": "CN1Cc2ncnc(NCc3cccs3)c2CN(c2ccccc2)C1=O", "Potency": "inconclusive: 39.8 µM [inhibitor, partial curve, poor fit]"}, {"smiles": "Fc1ccc(CNC2(Cc3cc(-c4ccc(F)cc4)on3)COC2)cc1", "Potency": "inconclusive: 89.1 µM [inhibitor, partial curve]"}, {"smiles": "O=C(c1ccc(F)c(F)c1)N1CCN(C(=O)c2nnn3c2COC(c2ccc(Cl)cc2)C3)CC1", "note": "(configuration not stated)", "Potency": "inconclusive: 2.51 µM [inhibitor, full curve, poor fit]"}, {"smiles": "COc1ccccc1-c1ccc(CN2CCC(NC(=O)c3ccccn3)C2)cc1", "note": "(configuration not stated)", "Potency": "inconclusive: 44.7 µM [inhibitor, partial curve, poor fit]"}, {"smiles": "CCOC(=O)c1ccc(NC(=O)N2Cc3[nH]cnc3C[C@H]2c2nc(-c3ccncc3)no2)cc1", "Potency": "inconclusive: 56.2 µM [inhibitor, partial curve, poor fit]"}, {"smiles": "C#CCNC(=O)CC[C@@H]1CNC(=O)[C@@H]2C[C@H](NC(=O)Nc3ccc(F)cc3F)CN12", "Potency": "inconclusive: 112 µM [inhibitor, single point]"}, {"smiles": "O=C(NC1CCCCC1)N[C@H]1[C@H](O)[C@@H](N2CCN(c3ccccc3)CC2)[C@@H]2OC[C@H]1O2", "Potency": "inconclusive: 126 µM [inhibitor, single point]"}, {"smiles": "COc1ccc(-c2cc(N3CCCC(NC(=O)c4ccc(OC)cc4OC)C3)n[nH]2)cc1", "note": "(configuration not stated)", "Potency": "inconclusive: 44.7 µM [inhibitor, partial curve, poor fit]"}, {"smiles": "CN1C[C@@H](NS(=O)(=O)Cc2ccccc2)C[C@H]1c1nc(-c2ccc3c(c2)OCO3)no1", "Potency": "inactive"}, {"smiles": "O=C(c1nnc(COc2ccc(F)c(F)c2)n1-c1ccccc1)N1CCC[C@@H]1C(c1ccccc1)c1ccccc1", "Potency": "active: 4.47 µM"}, {"smiles": "O=C1C(N2CCN(S(=O)(=O)Cc3ccccc3F)CC2)CCN1CCc1ccccc1", "note": "(configuration not stated)", "Potency": "inactive"}, {"smiles": "CC(C)Cc1cc(CNc2nc(C(C)(C)C)nc3c2cnn3C)no1", "Potency": "active: 44.7 µM"}, {"smiles": "COc1ccc(CC(=O)N2CCN(c3ccc4nnc(-c5ccccc5)n4n3)CC2)cc1", "Potency": "inconclusive: 50.1 µM [inhibitor, partial curve, poor fit]"}, {"smiles": "COCC1CN(C(C)=O)CC12CCN(Cc1cccc(Br)c1)CC2", "note": "(configuration not stated)", "Potency": "inactive"}, {"smiles": "OCC1(Cc2ccccc2F)CCCN(c2nnnn2-c2ccccc2)C1", "note": "(configuration not stated)", "Potency": "inconclusive: 50.1 µM [inhibitor, partial curve, poor fit]"}, {"smiles": "CCN(C(=O)CCC(=O)N1CCC(C)(c2noc(-c3ccccn3)n2)CC1)c1ccccc1", "Potency": "inactive"}, {"smiles": "O=C(NC1CCN(C(=O)c2ccc(-c3cccs3)cc2)CC1)c1ccc(Cl)nc1", "Potency": "inconclusive: 31.6 µM [inhibitor, full curve, poor fit]"}, {"smiles": "Cn1nc(C2CCN(C(=O)c3ccc4ccccc4n3)CC2)c2c1CCOC2", "Potency": "inactive"}, {"smiles": "CC(C)Cn1c(=O)c(C(=O)N2CCC(C#N)CC2)nc2cccnc21", "Potency": "inconclusive: 100 µM [inhibitor, partial curve, poor fit]"}, {"smiles": "CN(CCCn1ccnc1-c1cnc[nH]1)c1ccccc1", "Potency": "inconclusive: 79.4 µM [inhibitor, partial curve, poor fit]"}, {"smiles": "Cc1cccc(C(=O)NC2CCN(c3cc(-c4cccs4)[nH]n3)CC2)c1", "Potency": "inconclusive: 44.7 µM [inhibitor, partial curve, poor fit]"}, {"smiles": "COc1ccc(CNC(=O)c2nc3cccnc3n(Cc3ccc(OC)cc3)c2=O)cc1", "Potency": "inconclusive: 70.8 µM [inhibitor, single point] and inconclusive: 44.7 µM [inhibitor, partial curve, poor fit]"}, {"smiles": "O=C(N[C@H]1CO[C@H]2[C@@H]1OC[C@@H]2Nc1nccc(-c2cccs2)n1)C1CCCCC1", "Potency": "inconclusive: 100 µM [inhibitor, partial curve]"}, {"smiles": "Cn1cc(-c2ccc3c(n2)CN(Cc2ccc(C(F)(F)F)cc2)C(=O)CO3)cn1", "Potency": "active: 31.6 µM"}, {"smiles": "CCOc1ccccc1NC(=O)N1CCCCCCN(C)C(=O)[C@H]2CCC[C@H]21", "Potency": "inconclusive: 50.1 µM [inhibitor, partial curve, poor fit]"}, {"smiles": "CCOC(=O)c1oc2ccc(S(=O)(=O)NCC3Cn4cccc4C(=O)N3C)cc2c1C", "note": "(configuration not stated)", "Potency": "inactive"}, {"smiles": "O=C(NCC1CN(C(=O)c2ccoc2)CC12CCOCC2)N1CCCC1", "note": "(configuration not stated)", "Potency": "inactive"}, {"smiles": "N#Cc1cccc(CN2C[C@@H](CO)[C@H](NC(=O)c3ccccc3)C2)c1", "Potency": "active: 5.01 µM"}, {"smiles": "CC(C)CCNC(=O)c1cnc2n1CCN(Cc1cccc(C#N)c1)CC2", "Potency": "inconclusive: 44.7 µM [inhibitor, full curve, poor fit]"}, {"smiles": "CSCC(=O)N[C@H]1CCN2C(=O)c3cc(-c4cccs4)ccc3NC(=O)[C@H]12", "Potency": "inactive"}, {"smiles": "Cc1nn2c(c1-c1ccccc1C(C)C)N(Cc1ccc(C(=O)O)cc1)CCC2", "Potency": "active: 7.08 µM"}, {"smiles": "N#Cc1ccc(C(=O)Nc2ccc([C@H]3OCC(=O)N(C4CCOCC4)[C@@H]3CO)cc2)cc1", "Potency": "inactive"}, {"smiles": "Cc1ccc(CNC(=O)c2c(C)sc3ccn(C)c(=O)c23)cc1", "Potency": "inactive"}, {"smiles": "Cc1ccc(-n2c(C3CCN(C(=O)c4cccc(Cl)c4)CC3)n[nH]c2=O)cc1", "Potency": "inconclusive: 3.98 µM [inhibitor, full curve, poor fit]"}, {"smiles": "O=C(N[C@@H]1C[C@H](Cn2cc(C3CC3)nn2)[C@@H](O)[C@H]1O)c1cnccn1", "Potency": "inactive"}, {"smiles": "CCCC(C)C(=O)N1CCc2[nH]nc(C(=O)NCCCc3ccccc3)c2C1", "note": "(configuration not stated)", "Potency": "active: 39.8 µM"}, {"smiles": "Cc1ccccc1C(=O)N1CCC2(CC1)N=C(c1cccc(Br)c1)NO2", "Potency": "inconclusive: 39.8 µM [inhibitor, partial curve, poor fit]"}]}]}
